Test results published in US20090074666A1 (priority 2005, published 2009).

Tested on: A/Hong Kong/8/68 H3N2
Format: binding, human influenza virus A
Set-up: key: “+” = binding; “−” = no binding; “(+)” = trace binding

Globoside was tested, and the “Binding of influenza virus strain to glycolipids” value was “−”.
